As a reminder, the EC50 is the midpoint of the concentration-response curve. The low end stands for greater potency, the high end for weaker potency.

The test has as its target T1, human SIRPα naturally expressed on human renal clear cell adenocarcinoma 786-O cells (human, UniProt P78324 31-504).
T1 construct: whole, on cells
Put plainly: FACS on 786-O cells, PE-anti human FC secondary, MFI; unit from the axis Log[Abs,nM]. Here is the method:
Blocking: the cells were resuspended with 2% FBS and were seeded into 96-well U bottom plate with 2E5/well, 200 μl/well, then subjected to ice bath for 1 h. Centrifugation was performed at 300 g for 3 min, and the supernatant was discarded. Antibody incubation: 10 μg/ml antibodies for incubation were diluted at 1:3, 100 μl/well, and subjected to ice bath for 1 h. Centrifugation was performed, and the supernatant was discarded. Pre-cooled PBS was added at 200 μl/well, centrifuged at 300 g for 5 min to discard supernatant, which was repeated twice. Secondary antibody: PE-anti human FC (1:200) 50 μl/well was subjected to ice bath for 0.5h. Centrifugation was performed and the supernatant was discarded. Pre-cooled PBS was added at 200 μl/well, centrifuged at 300 g for 5 min to discard supernatant, which was repeated 3 times. The mean fluorescence values were read on FACS.

T1 sequence (P78324 31-504): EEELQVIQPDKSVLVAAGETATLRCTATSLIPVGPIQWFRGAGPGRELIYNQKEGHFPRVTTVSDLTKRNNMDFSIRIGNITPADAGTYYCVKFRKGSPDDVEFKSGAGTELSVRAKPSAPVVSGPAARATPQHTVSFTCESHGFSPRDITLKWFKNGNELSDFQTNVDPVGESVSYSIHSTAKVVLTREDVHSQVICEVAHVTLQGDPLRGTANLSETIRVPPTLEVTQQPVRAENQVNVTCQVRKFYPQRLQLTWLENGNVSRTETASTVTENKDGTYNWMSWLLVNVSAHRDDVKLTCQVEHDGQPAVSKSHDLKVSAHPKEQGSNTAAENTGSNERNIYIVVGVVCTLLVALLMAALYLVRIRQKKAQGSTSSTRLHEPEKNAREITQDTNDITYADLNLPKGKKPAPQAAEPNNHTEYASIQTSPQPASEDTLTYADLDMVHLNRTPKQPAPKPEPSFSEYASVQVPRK

B1: QP163245 (anti-SIRPα chimeric antibody, variable regions of 71C10, human IgG4/kappa) (antibody)
light: DIVLTQSPASLAVSLGQRATISCRASKSVSSSGYNYIFWYQQKPGQPPKLLIYLASNLDSGVPARFSGSGSGTDFTLNIHPVEEEDAATYYCQHSRELPTFGGGTKLEIKRTVAAPSVFIFPPSDEQLKSGTASVVCLLNNFYPREAKVQWKVDNALQSGNSQESVTEQDSKDSTYSLSSTLTLSKADYEKHKVYACEVTHQGLSSPVTKSFNRGEC
heavy: QVQLQQPGTELVRPGASVKLSCKASGYTFTNYWINWVKQRPGQGLEWIAMIDPSDSETHYNQIFKDKATLTVDKSSNTAYMQLSSLTSGDSAVYYCAMDYGSLYAMDYWGRGTSVTVSSASTKGPSVFPLAPCSRSTSESTAALGCLVKDYFPEPVTVSWNSGALTSGVHTFPAVLQSSGLYSLSSVVTVPSSSLGTKTYTCNVDHKPSNTKVDKRV[not shown - human IgG4 Fc with S228P (EU numbers)]
The molecule B1 registered an EC50 of 0.179 nM.

The values above are taken from patent US20240018255A1 (QURE BIOTECHNOLOGY SHANGHAI, published 2024).
